Assay results: the supplement of paper PMC4166925
± gives the standard deviation of the averaged measurements. Over roughly 33,000 sequences, “E-score (dimensionless, -0.5 to 0.5)” has its median near -0.046; the highest 2% begin near 0.36. This is one part of the list.

Test system: T1, SpTbr T-box DNA-binding domain (GST fusion)
T1 sequence: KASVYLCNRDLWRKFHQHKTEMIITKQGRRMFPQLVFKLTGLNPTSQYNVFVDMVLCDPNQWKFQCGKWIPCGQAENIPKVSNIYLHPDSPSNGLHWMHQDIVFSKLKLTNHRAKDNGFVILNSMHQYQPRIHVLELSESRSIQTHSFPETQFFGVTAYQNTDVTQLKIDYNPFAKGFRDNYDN
Assay: PBM E-score of 8-mer (E-score (dimensionless, -0.5 to 0.5)); Tbr is Tbrain of the sea star Patiria miniata (Pm) or the sea urchin Strongylocentrotus purpuratus (Sp); higher = stronger binding preference; most listed sequences are background and not binding sites
Settings: the construct has about 5 more residues each side
Method in brief: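 Universal Agilent oligonucleotide arrays, made double-stranded by primer extension, were incubated with 200 nM GST-fused Tbr T-box DNA-binding domain in PBS (pH 7.5). The protein was expressed in BL21 E. coli at 20 °C and purified by glutathione affinity chromatography. After scanning and quantification, the Universal PBM Analysis Suite assigned an enrichment E-score to each ungapped 8-mer, averaged over duplicate arrays.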

Sequence | PBM E-score of 8-mer
GTGTATTA | 0.0221 ± 0.022
AGTGCACT | -0.0755 ± 0.013
ACTGAACT | -0.166 ± 0.0098
AGGCTGCA | 0.0119 ± 0.073
GACCTATA | -0.116 ± 0.02
CGCAGCCC | -0.144 ± 0.013
GGACAGCC | -0.132 ± 0.019
GGCCGACA | 0.124 ± 0.0069
AGCGGCCG | 0.00554 ± 0.11
CGGCTTCC | -0.121 ± 0.064
AACCCTCA | 0.00879 ± 0.079
GCGCTAGC | 0.227 ± 0.014
CACATTGG | 0.284 ± 0.039
ATCAATCA | 0.108 ± 0.021
CGGCTGAA | -0.231 ± 0.021
ATCTGGAG | -0.121 ± 0.061
TAGGTTGA | 0.0129 ± 0.0079
CCGTGTGC | 0.0129 ± 0.03
GCAAGACC | -0.158 ± 0.0079
CCTTCGGC | -0.184 ± 0.065
ACTAGTGG | 0.133 ± 0.029
AGTCTGTC | -0.183 ± 0.063

Sequence | PBM E-score of 8-mer
AGAGACGG | -0.0377 ± 0.014
ATAGCAAC | 0.146 ± 0.025
AAGAGGGA | -0.0591 ± 0.016
CGACGCAA | -0.045 ± 0.1
TCGCCGCA | -0.0789 ± 0.033
AACTTCTA | -0.103 ± 0.0015
TAATACCA | -0.0312 ± 0.015
AGCGTCGG | -0.00722 ± 0.054
ACAGAGAG | -0.00734 ± 0.04
CCAGTTTA | -0.0914 ± 0.029
CGCAGGCG | 0.247 ± 0.043
ACGAGACC | -0.0823 ± 0.034
AGCGATAG | 0.0236 ± 0.061
CCATGTTA | -0.0652 ± 0.0067
CCTCGTAA | -0.0845 ± 0.052
TAGGCGAA | 0.0827 ± 0.01
AGGACCTA | -0.217 ± 0.08
CAGGGCGG | -0.142 ± 0.049
AACAACGA | -0.00856 ± 0.0023
GCGGTCAC | 0.207 ± 0.043
AGGTCACA | 0.267 ± 0.032
AATGACAA | 0.0868 ± 0.0078

Sequence | PBM E-score of 8-mer
CGTCAAAC | 0.132 ± 0.029
AACCGCTA | 0.141 ± 0.0089
ATCAATAA | -0.264 ± 0.016
CGCTGCGC | 0.0513 ± 0.1
AAGTCGAA | -0.3 ± 0.051
CTTTGAAA | -0.284 ± 0.062
TCAGTCCA | -0.0208 ± 0.089
GCTGTCCA | -0.0788 ± 0.0064
AACCAATT | -0.112 ± 0.051
AAGCTAGT | 0.0947 ± 0.017
CCAGTTCC | -0.105 ± 0.096
TATAGCCA | -0.00579 ± 0.029
CGGCGGCA | 0.106 ± 0.037
CGGCAGTC | -0.119 ± 0.026
ATACGTTG | -0.0976 ± 0.014
CGCATCAC | 0.241 ± 0.072
ATCTCGCC | 0.251 ± 0.012
TCCGGCCA | -0.205 ± 0.009
AAAGATCT | -0.1 ± 0.035
TACTTATA | -0.0325 ± 0.022
CATGTCGA | -0.0673 ± 0.11
TAATTTGA | -0.102 ± 0.023

Sequence | PBM E-score of 8-mer
AAACCTTT | -0.137 ± 0.077
AGCCAACG | -0.00602 ± 0.019
AGCGAACT | 0.12 ± 0.0055
GACATATC | -0.0112 ± 0.045
CAGAACAA | -0.146 ± 0.017
CCTCGAGC | 0.00142 ± 0.047
CCAGGGCA | -0.265 ± 0.012
CCCAGGAG | -0.188 ± 0.037
ACGGGATA | 0.0434 ± 0.024
AGTACTTA | -0.0135 ± 0.058
ATAAGGTC | -0.0916 ± 0.027
CCCTCGAA | -0.00653 ± 0.054
GCAACTTA | 0.0187 ± 0.039
ACCACTAC | -0.2325 ± 0.00052
GTGCTAAA | 0.384 ± 0.026
CATAGCCG | -0.221 ± 0.016
AATGACCA | -0.058 ± 0.046
AGTTCGAC | -0.217 ± 0.032
CGTGCACA | 0.123 ± 0.081
TCGGAAAA | -0.121 ± 0.03
GCTCCGCA | -0.0854 ± 0.025
ATGCATTC | -0.151 ± 0.051

Sequence | PBM E-score of 8-mer
ATAGGGCA | -0.223 ± 0.025
CCATACCG | -0.115 ± 0.017
AACAGCAT | -0.00661 ± 0.007
GCATGACC | -0.155 ± 0.023
GACCGTCA | 0.0838 ± 0.01
TATGAATA | -0.218 ± 0.046
AGTACCTA | -0.0731 ± 0.017
AGTTAACA | 0.334 ± 0.023
GTAAACAC | 0.32 ± 0.0098
CACTTTCA | 0.268 ± 0.014
CCACCAGC | -0.192 ± 0.0092
GCCGGGAC | -0.255 ± 0.015
GACGCCGA | 0.123 ± 0.037
AGGAGCGG | -0.139 ± 0.014
AAGGCCAC | -0.108 ± 0.057
ATGCCACA | 0.00867 ± 0.018
GGAGGTAC | -0.276 ± 0.04
CCCCATTC | -0.144 ± 0.0093
GAAACTGC | -0.0732 ± 0.049
CGAGTTCC | -0.113 ± 0.055
TAATCATA | -0.175 ± 0.018
